# This is one part of the list. Values were computed here from the reads of four pooled replicates and scatter widely.
# Target: T1, Pho4 (S. cerevisiae) (UniProt P07270)
# T1 sequence: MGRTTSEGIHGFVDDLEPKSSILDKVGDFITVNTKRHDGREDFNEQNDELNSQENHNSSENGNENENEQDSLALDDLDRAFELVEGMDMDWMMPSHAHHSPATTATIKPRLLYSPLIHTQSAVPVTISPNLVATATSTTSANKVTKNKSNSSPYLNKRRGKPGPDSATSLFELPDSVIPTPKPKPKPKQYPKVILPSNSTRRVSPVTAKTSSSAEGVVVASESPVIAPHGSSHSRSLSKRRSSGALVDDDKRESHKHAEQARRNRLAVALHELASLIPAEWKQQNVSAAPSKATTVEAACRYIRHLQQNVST
# Assay: relative binding free energy (BET-seq); higher = weaker binding
# Conditions: reference: library average
row,Sequence,relative binding free energy
1,GGCGGCACGTGCAGGT,-0.08 kcal/mol
2,ATTGACACGTGGGTTA,-0.09 kcal/mol
3,AGTTCCACGTGTGATG,0.1 kcal/mol
4,TTGGCCACGTGGATGG,0 kcal/mol
5,GAATGCACGTGGAGGC,0.08 kcal/mol
6,TTGTGCACGTGTTCTT,-0.1 kcal/mol
7,TAAAGCACGTGAGGCG,0.21 kcal/mol
8,CATGCCACGTGGGGTA,-0.19 kcal/mol
9,GTGGGCACGTGTAGAC,0.05 kcal/mol
10,TTGGGCACGTGCTCGT,-0.18 kcal/mol
11,TCGTTCACGTGGTATA,0.08 kcal/mol
12,AGAGCCACGTGGGCGT,-0.19 kcal/mol
13,GGGATCACGTGAGTAT,0.26 kcal/mol
14,AAGGTCACGTGGCGGA,0.05 kcal/mol
15,TGTGACACGTGTTAGA,0.04 kcal/mol
16,ATAGGCACGTGTTGTG,-0.22 kcal/mol
17,TGCGTCACGTGGACGT,0.03 kcal/mol
18,ATCAGCACGTGGGTTT,-0.25 kcal/mol
19,GTGACCACGTGTTTGG,0.06 kcal/mol
20,AATGGCACGTGTGGGA,-0.11 kcal/mol
21,TAACTCACGTGGGGTT,-0.06 kcal/mol
22,AAGGTCACGTGGTGCG,0.08 kcal/mol
23,ATCGGCACGTGGATTG,-0.06 kcal/mol

row,Sequence,relative binding free energy
1,TGAGTCACGTGTTTAG,0.16 kcal/mol
2,GGGGTCACGTGGTTTA,0.22 kcal/mol
3,TGTAGCACGTGAGTTG,0.13 kcal/mol
4,GGGTTCACGTGGGATA,0.32 kcal/mol
5,CTGGGCACGTGAGGTC,0.1 kcal/mol
6,CAGAGCACGTGGAGGG,-0.21 kcal/mol
7,ATTGGCACGTGGCGGG,-0.2 kcal/mol
8,ATTAGCACGTGAGAGT,0.21 kcal/mol
9,TCTTACACGTGTATGT,0.14 kcal/mol
10,AGATGCACGTGAGGTA,0.11 kcal/mol
11,CGTATCACGTGTGCGT,0.15 kcal/mol
12,GCGCACACGTGTGGGG,0.24 kcal/mol
13,GGGGGCACGTGCGACG,-0.2 kcal/mol
14,GGCATCACGTGGCGGA,0.18 kcal/mol
15,TATATCACGTGGAATG,0.18 kcal/mol
16,AGTGGCACGTGGACCG,-0.05 kcal/mol
17,CTATACACGTGTGAGG,0.11 kcal/mol
18,TCGTTCACGTGTGATG,0.38 kcal/mol
19,TATACCACGTGTGGTT,-0.12 kcal/mol
20,ATTGGCACGTGATTGC,0 kcal/mol
21,GCAGTCACGTGTTGAG,0.28 kcal/mol
22,CGGGTCACGTGTTGGC,0.18 kcal/mol
23,TGATTCACGTGTCGGT,0.25 kcal/mol

row,Sequence,relative binding free energy
1,TCGGACACGTGTTGGA,0.1 kcal/mol
2,TGGCGCACGTGCAGAG,-0.09 kcal/mol
3,TAATACACGTGTTGCG,0.05 kcal/mol
4,TTTGTCACGTGTCGTG,0.07 kcal/mol
5,ATTTTCACGTGTACGG,0.26 kcal/mol
6,TGTCCCACGTGGAGGG,-0.04 kcal/mol
7,TAGCTCACGTGTTGGA,0.2 kcal/mol
8,GCGATCACGTGTAGTG,0.24 kcal/mol
9,CGGGTCACGTGGGACT,-0.03 kcal/mol
10,AAGCGCACGTGGTTTG,-0.12 kcal/mol
11,TCGTTCACGTGATTGA,0.31 kcal/mol
12,TATGGCACGTGCGCTT,-0.09 kcal/mol
13,TGGATCACGTGGGTTT,0.08 kcal/mol
14,ATCTGCACGTGGGTCT,-0.16 kcal/mol
15,TGATGCACGTGGGTCA,-0.34 kcal/mol
16,TTAGCCACGTGGGGCG,-0.26 kcal/mol
17,TTGTTCACGTGTGTCT,0.37 kcal/mol
18,TGGATCACGTGGGACA,0.08 kcal/mol
19,GGGATCACGTGAATTG,0.29 kcal/mol
20,AGATTCACGTGTGCGA,0.29 kcal/mol
21,TTGTGCACGTGGCTGC,-0.03 kcal/mol
22,TCGGTCACGTGTTTCG,0.07 kcal/mol
23,GGTAACACGTGTGGAG,0.16 kcal/mol

row,Sequence,relative binding free energy
1,GTGGGCACGTGGAAGG,-0.08 kcal/mol
2,TGGCACACGTGATGAG,0.27 kcal/mol
3,TAGGACACGTGTTTTT,-0.02 kcal/mol
4,AAGTGCACGTGAGAGG,0.12 kcal/mol
5,TTAGGCACGTGGTCAA,-0.25 kcal/mol
6,GCGGGCACGTGTTGGC,-0.03 kcal/mol
7,GTTTTCACGTGGCATG,0.19 kcal/mol
8,GGCTACACGTGTGGGG,0.12 kcal/mol
9,AGAGCCACGTGGGAGT,-0.09 kcal/mol
10,CAAAGCACGTGGTAGT,-0.03 kcal/mol
11,AGCTGCACGTGTTAGT,-0.05 kcal/mol
12,TTAAGCACGTGTTGGT,-0.08 kcal/mol
13,GAGGTCACGTGGGTCG,-0.05 kcal/mol
14,AGTTGCACGTGTTCTG,-0.19 kcal/mol
15,CATAGCACGTGTGTAG,-0.03 kcal/mol
16,ATGTTCACGTGGCTTT,0.17 kcal/mol
17,TGGTGCACGTGAGTGA,0.15 kcal/mol
18,AGTTACACGTGTATGA,0.15 kcal/mol
19,GAGGGCACGTGTTTAA,-0.03 kcal/mol
20,GGCTGCACGTGTGACG,0.14 kcal/mol
21,GGTTACACGTGGTAAG,0.12 kcal/mol
22,GGGGCCACGTGTCGTG,0.03 kcal/mol
23,GAATGCACGTGTAGGG,0 kcal/mol

row,Sequence,relative binding free energy
1,GGTACCACGTGGAGGT,-0.08 kcal/mol
2,ATTGACACGTGGGTTC,-0.19 kcal/mol
3,TAAGGCACGTGTAATG,-0.14 kcal/mol
4,TTGCGCACGTGTCTGT,0 kcal/mol
5,GGGTACACGTGGACTG,0.14 kcal/mol
6,TGTTGCACGTGGGGAC,-0.04 kcal/mol
7,CGGCTCACGTGTTGTT,0.14 kcal/mol
8,TCTTCCACGTGGGGTT,-0.22 kcal/mol
9,GAATGCACGTGTGTTG,0.19 kcal/mol
10,ATCATCACGTGGAGGG,0.02 kcal/mol
11,TTACTCACGTGTGGTG,0.22 kcal/mol
12,AATGGCACGTGGCAAT,-0.09 kcal/mol
13,TATTACACGTGCTATT,0.05 kcal/mol
14,TGTTACACGTGAGCTT,0.15 kcal/mol
15,TACGTCACGTGGAGGG,0 kcal/mol
16,TATTTCACGTGATGAT,0.38 kcal/mol
17,ATTAGCACGTGTATTT,-0.13 kcal/mol
18,TGTCTCACGTGTGGTT,0.19 kcal/mol
19,CTGAGCACGTGTATTT,0 kcal/mol
20,GTCATCACGTGGGAGG,0.12 kcal/mol
21,TAGATCACGTGATCGT,0.31 kcal/mol
22,GATGTCACGTGCTGGG,0.17 kcal/mol
23,TGCTACACGTGTGGCG,0.1 kcal/mol
